From publication PMC4336329 (PLoS ONE, 2015)
Out of some 310,000 compounds screened, about 14,000 (4.5%) showed an effect of 50% or more. Effects have a minus sign here. The list shows a part of the results.

Biological target: human ether-à-go-go-related gene (hERG) potassium channel (human, UniProt Q12809)
Assay: primary screen, population patch clamp on CHO cells stably expressing hERG
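Also: peak tail current of the secondary pulse compared with the same well before compound.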

Chain of human ether-à-go-go-related gene (hERG) potassium channel (Q12809 whole entry, looked up): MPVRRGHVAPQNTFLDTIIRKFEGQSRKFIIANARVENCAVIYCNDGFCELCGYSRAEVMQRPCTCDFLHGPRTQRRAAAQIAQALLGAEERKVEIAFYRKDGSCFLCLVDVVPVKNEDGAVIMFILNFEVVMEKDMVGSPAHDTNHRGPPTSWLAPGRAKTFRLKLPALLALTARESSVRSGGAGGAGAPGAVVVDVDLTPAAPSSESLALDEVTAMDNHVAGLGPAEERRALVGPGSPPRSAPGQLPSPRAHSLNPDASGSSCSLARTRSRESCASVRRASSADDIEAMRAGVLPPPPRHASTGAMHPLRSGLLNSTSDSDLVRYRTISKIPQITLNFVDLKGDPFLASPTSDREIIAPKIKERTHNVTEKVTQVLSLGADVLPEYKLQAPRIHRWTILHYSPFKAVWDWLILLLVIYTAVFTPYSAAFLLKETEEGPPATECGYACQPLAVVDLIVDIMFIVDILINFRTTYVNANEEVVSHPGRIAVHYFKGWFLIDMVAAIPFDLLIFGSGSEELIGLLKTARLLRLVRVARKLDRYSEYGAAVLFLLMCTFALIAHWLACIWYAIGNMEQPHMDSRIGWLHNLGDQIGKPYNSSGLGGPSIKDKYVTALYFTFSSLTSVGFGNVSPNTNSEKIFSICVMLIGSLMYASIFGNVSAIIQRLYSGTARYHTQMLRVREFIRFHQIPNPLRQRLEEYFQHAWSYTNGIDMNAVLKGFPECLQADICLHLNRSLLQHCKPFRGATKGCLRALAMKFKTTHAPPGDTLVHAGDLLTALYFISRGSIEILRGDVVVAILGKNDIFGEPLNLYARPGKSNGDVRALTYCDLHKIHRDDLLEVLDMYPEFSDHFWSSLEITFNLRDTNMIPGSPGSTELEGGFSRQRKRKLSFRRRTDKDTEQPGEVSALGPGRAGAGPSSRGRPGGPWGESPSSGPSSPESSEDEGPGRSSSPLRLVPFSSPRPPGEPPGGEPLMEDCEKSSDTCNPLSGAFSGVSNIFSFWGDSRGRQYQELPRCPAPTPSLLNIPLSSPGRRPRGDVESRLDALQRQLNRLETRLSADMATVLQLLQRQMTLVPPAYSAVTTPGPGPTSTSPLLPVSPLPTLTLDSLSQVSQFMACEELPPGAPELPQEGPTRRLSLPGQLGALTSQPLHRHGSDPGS

First: O=[N+]([O-])c1ccc(/C=N/Nc2ccc3ccccc3c2)o1
Second: CC(Nc1cccc2ccccc12)C(=O)N/N=C/c1ccc([N+](=O)[O-])cc1 (stereo not shown)
The “hERG current change (%, negative = inhibition) at 10uM” value of the first is higher: 9.24% for the first, -4.28% for the second.

First: CSc1cc(N2CCOCC2)nc(-c2ccccc2Cl)n1
Second: Cc1c(C(=O)NN2CCOCC2)oc2c1ccc1ccccc12
The “hERG current change (%, negative = inhibition) at 10uM” value of the first is higher: 2.88% for the first, 2.24% for the second.

Compared with `COc1ccccc1CN1CCN(Cc2ccc3ccccc3c2)CC1.O=C(O)C(=O)O`, `O=C(C1CC(c2ccc(F)cc2)=NO1)N1CCN(Cc2ccccc2)CC1` (stereo not shown) is lower in “hERG current change (%, negative = inhibition) at 10uM” value: -36.7% for the first, -44.5% for the second.

First: CCOCc1cc(CN2CCCC(CNC(=O)c3ccco3)C2)ccc1OC (stereo not shown)
Second: CC(C)[C@H](NC(=O)c1ccco1)C(=O)NCc1ccccc1
The “hERG current change (%, negative = inhibition) at 10uM” value of the first is lower: -48.3% for the first, 25.1% for the second.

Compared with `Cc1sc(NC(=O)C(C)C)c(C(=O)Nc2ccccc2)c1C`, `CC(=O)Nc1ccc(Oc2sc(C(=O)c3ccccc3)c(N)c2C#N)cc1` is higher in “hERG current change (%, negative = inhibition) at 10uM” value: 4.7% for the first, 12.7% for the second.

Compared with `O=C(NC(=S)N1CCCCC1c1cccnc1)c1ccc(F)cc1` (stereo not shown), `O=C(CN(c1ccccc1)S(=O)(=O)c1ccc(F)cc1)NC1CCCCCC1` is lower in “hERG current change (%, negative = inhibition) at 10uM” value: 5.06% for the first, -6.17% for the second.

Going from `O=C(Cc1cccs1)Nc1ccc(F)cc1F` to `Cc1ccc(NC(=S)NCc2ccc(Cl)cc2)c(OC(F)F)c1`, the “hERG current change (%, negative = inhibition) at 10uM” value falls from -0.592% to -6.64%.

Going from `O=C(CSc1nnc(CNC(=O)c2ccccc2F)o1)NCCc1ccccc1` to `Cc1cc(NC(=O)CSc2nnc(COc3ccccc3)o2)no1`, the “hERG current change (%, negative = inhibition) at 10uM” value rises from 0.688% to 6.51%.

Going from `Cc1cc(NC(=O)Cn2c(=O)c3c(ncn3CCC(C)C)n(Cc3ccccc3)c2=O)no1` to `Cc1nn(Cc2cccc(C(=O)Nc3ccn(Cc4ccccc4)n3)c2)c(C)c1[N+](=O)[O-]`, the “hERG current change (%, negative = inhibition) at 10uM” value rises from -17.5% to -9.27%.

Going from `Cc1cc(C)c(S(=O)(=O)NCCOc2ccccc2)c(C)c1-n1cnnn1` to `CCOC(=O)c1nn(-c2ccc(C)cc2)cc1C(=O)c1ccccc1`, the “hERG current change (%, negative = inhibition) at 10uM” value falls from 7.74% to -9.04%.

Going from `O=C1OCCN1CCNCc1cn(-c2ccc(F)cc2)nc1-c1ccccc1Cl` to `Clc1ccccc1OCCn1nnc2ccccc21`, the “hERG current change (%, negative = inhibition) at 10uM” value rises from -45.2% to -4.21%.

Going from `Cc1ccccc1NC(=O)c1ccccc1` to `O=S(=O)(NC(=S)c1ccccc1)c1ccccc1`, the “hERG current change (%, negative = inhibition) at 10uM” value falls from 9.71% to -15.1%.

Compared with `COC(=O)CSc1nnnn1-c1ccccc1`, `COc1cccc(CSc2nnnn2-c2ccc(O)cc2)c1` is lower in “hERG current change (%, negative = inhibition) at 10uM” value: 24.6% for the first, -18.5% for the second.

Going from `CC(=N/O)/C(C)=N\NC(=O)c1ccccn1` to `CC(C)N(Cc1ccccc1)C(=S)NC(=O)C1(C)CC1(Cl)Cl` (stereo not shown), the “hERG current change (%, negative = inhibition) at 10uM” value falls from 19.2% to -7.04%.

Going from `O=C(COC(=O)c1cc(S(=O)(=O)N2CCOCC2)ccc1O)NCCc1ccccc1` to `Cc1ccc(NC(=O)COC(=O)C2CCC(=O)N2)c(S(=O)(=O)N2CCOCC2)c1` (stereo not shown), the “hERG current change (%, negative = inhibition) at 10uM” value rises from -4.93% to -0.0412%.

Compared with `CCOc1cc(C)c(S(=O)(=O)Nc2ccc(F)cc2)cc1C`, `CCOc1ccc(CCNC(=O)COC(=O)c2ccc(C)c([N+](=O)[O-])c2)cc1OCC` is lower in “hERG current change (%, negative = inhibition) at 10uM” value: -7.43% for the first, -7.57% for the second.

Going from `N#CC1=C(N)SC(N)=C(C#N)C1CCC1CCCCC1` to `CN(C)S(=O)(=O)c1cccc(NC(=O)CNCC2CCCCC2)c1.O=C(O)C(=O)O`, the “hERG current change (%, negative = inhibition) at 10uM” value falls from 16.5% to -1.77%.

First: Fc1cccc(Cl)c1/C=N/Nc1c(Cl)cncc1Cl
Second: C(=N\Nc1nc2ccccc2s1)/c1ccco1
The “hERG current change (%, negative = inhibition) at 10uM” value of the first is higher: -7.36% for the first, -17.8% for the second.

Going from `Cc1cc(NCc2ccccc2)c2ccccc2n1.Cl` to `Cc1cc(NC(=O)/C=C/c2cccc(F)c2)n(-c2nc3ccccc3[nH]2)n1`, the “hERG current change (%, negative = inhibition) at 10uM” value rises from -67.5% to 1%.

Compared with `CCOC(=O)c1c(NC(=O)CSc2nnc(C)s2)sc2c1CCCCC2`, `CCOc1ccc(C(=O)Nc2nnc(S(=O)(=O)N3CCCCC3)s2)cc1` is higher in “hERG current change (%, negative = inhibition) at 10uM” value: 12.7% for the first, 19.7% for the second.

Compared with `O=C1c2cccc3cccc(c23)C(=O)N1Cc1cccnc1`, `O=C(Oc1ccc(NC2=NS(=O)(=O)c3ccccc32)cc1)c1cccnc1` is higher in “hERG current change (%, negative = inhibition) at 10uM” value: -4.51% for the first, 11.7% for the second.

Compared with `CCCC(=O)Nc1nc(C)c(-c2csc(Nc3ccccc3OC)n2)s1`, `COc1ccc(Nc2nc(-c3sc(N)nc3C)cs2)cc1` is higher in “hERG current change (%, negative = inhibition) at 10uM” value: 5.74% for the first, 8.32% for the second.

Compared with `CCCOC(=O)/C=C/c1c(C)[nH]c(=O)[nH]c1=O`, `CC(=O)Oc1c(C)c(=O)n(C)c2ccccc12` is higher in “hERG current change (%, negative = inhibition) at 10uM” value: 2.13% for the first, 18.1% for the second.

Compared with `CCOc1ccccc1N(CC(=O)NCCSc1ccccc1)S(C)(=O)=O`, `Cc1ccc(C(=O)NCC(=O)OCC(=O)c2ccccc2)s1` is lower in “hERG current change (%, negative = inhibition) at 10uM” value: 1.91% for the first, -12.6% for the second.

Going from `COc1ccc(N=Cc2ccc(-c3ccccc3)o2)cc1` to `CCOc1ccc(/C=N/n2c(COc3ccccc3)n[nH]c2=S)cc1OC`, the “hERG current change (%, negative = inhibition) at 10uM” value rises from 5.03% to 14.8%.

Compared with `CC1=NN(C(=O)c2ccc(Cn3nc(C)c(Br)c3C)cc2)C(O)(C(F)(F)F)C1` (stereo not shown), `Cc1cc(S(=O)(=O)NCc2ccc(N3CCN(C)CC3)cc2)c(C)s1` is lower in “hERG current change (%, negative = inhibition) at 10uM” value: 1.79% for the first, -9.41% for the second.

Compared with `O=c1[nH][nH]c(=O)c2c(NS(=O)(=O)c3ccccc3)cccc12`, `Fc1ccccc1SCc1nnc(-c2ccccc2Br)o1` is lower in “hERG current change (%, negative = inhibition) at 10uM” value: 24.7% for the first, 2.04% for the second.

First: Cc1c(O)ccc2c(O)c(NC(=O)c3ccc4c(c3)CCC(C)(C)O4)c(=O)oc12
Second: Cc1ccc2c(c1)N(CCCC(=O)NCCCN1CCCC1=O)C(=O)CO2
The “hERG current change (%, negative = inhibition) at 10uM” value of the first is higher: 6.09% for the first, -8.71% for the second.

Compared with `CC(C(=O)Nc1ccc2c(c1)OCO2)N1CCC(N2CCCCC2)CC1.O=C(O)C(=O)O` (stereo not shown), `O=C(O)CCCC(=O)Nc1nc2n(n1)C(c1ccc(F)cc1)CC(c1ccc(Cl)cc1)N2` (stereo not shown) is lower in “hERG current change (%, negative = inhibition) at 10uM” value: 5.95% for the first, -0.46% for the second.
